The values that follow come from PubChem BioAssay (NCI).

The assay concerns NCI-H322M lung. In words: growth of human tumour cells (NCI), 48 h.

“And” between values parts separate entries of the source, which are not always exact repeats. Equal values may be shown once.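 Cultured in 96-well plates, cells were exposed to test compound for 48 hours across five concentrations. GI50 is the concentration that inhibits growth by half. TGI marks complete inhibition of growth.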

For `CN1CC[C@@H](c2c(O)cc(O)c3c(=O)cc(-c4ccccc4Cl)oc23)[C@@H]1CO`, the GI50 was 0.327 µM and the TGI was above 10 µM.
The compound `COc1cc2c(cc1OC)C(Cl)C(c1ccc(Cl)c(Cl)c1)=C2Cl` (centres undefined) gave a TGI of 86.5 µM.
On the same count and under the same terms, with `COc1c(O)cc(O)c2c(=O)cc(-c3ccccc3)oc12` the figure was above 100 µM; with `CC1(C)CC(=O)c2c(nc3ccc4ccccc4c3c2-c2ccc(NC(=O)CCCCCCCCC(=O)Nc3ccc(-c4c5c(nc6ccc7ccccc7c46)CC(C)(C)CC5=O)cc3)cc2)C1`, above 100 µM.
In the case of `COC(=O)c1c(OC(C)=O)ccc2c1c1c(n2C)C(=O)c2ccccc2C1=O`, the TGI amounted to 74.7 µM.
Compound `C[C@]12CC[C@H]3[C@@H](CC[C@]4(O)C[C@@H](O)CC[C@]34/C=N/O)[C@@]1(O)CC[C@@H]2C1=COC(=O)C1` yielded a TGI of 1.15 µM.
For `C/C=C(\C)C(=O)O[C@H]1C=CC(=O)O[C@@H]1CC[C@H](O)[C@H](C)O`, the GI50 was 80.4 µM and the TGI is above 100 µM.
The like results for `Cn1cc(C2=C(c3cccc(OCC(O)CO)c3)C(=O)NC2=O)c2ccccc21` (centres undefined) were, in that order, above 25 µM and above 25 µM.
In turn, `NC(=S)N/N=C/c1ncccc1N` came in with a TGI above 100 µM.
Take `COc1ccc(/C=C2\CCCC3=C2NC(N)=NC3c2ccc(OC)c(OC)c2)cc1OC` (centres undefined): the GI50 was above 100 µM and the TGI was above 100 µM.
In turn, `CCOC(=O)c1c(N2CCCC2)ncn(Cc2ccccc2)c1=S` registered a TGI above 100 µM.
On to `COc1ccc(OC)c(-c2c(C#N)c(N)nc(N3CCOCC3)c2C#N)c1`, for which the GI50 is 40.3 µM and the TGI was above 100 µM.
On to `Cc1ccc(S(=O)(=O)Nc2cccc3[nH]c(C(F)(F)F)nc23)cc1`, for which the GI50 was 1.77 µM and the TGI was above 70.5 µM.
As to `COc1ccc(C(=O)/C=C/c2c(Cl)c3c(c(OC)c2Cl)OCC(=O)N3)cc1`, the GI50 is 3.94 µM and the TGI was above 100 µM.
In turn, `COC(=O)CCC(NC(=S)N/N=C/c1ccco1)C(=O)OC` (centres undefined) registered a TGI above 100 µM.
The same measure, in the same setting: with `O=c1c2cc(I)ccc2nc(-c2cccs2)n1-c1ccc(O)cc1` the figure was 22.5 µM; with `C=C(CO[Si](C)(C)C(C)(C)C)C(C)=O`, above 100 µM.
Take `O=C(NC[C@H](O)CO)c1ccncc1Nc1ccc(I)cc1F`: the GI50 was 0.274 µM and 1.08 µM; the TGI is above 100 µM.
With `CCc1cccc(C)c1NC(=O)C(=O)Cc1nc2ccccc2s1`, the TGI was above 100 µM.
With `O=C1c2ccccc2-c2c1c1ccccc1c(=O)n2CCN1CCOCC1`, the GI50 is above 100 µM and the TGI was above 100 µM.
